# Experimental data reported in the supplement of paper PMC10369915.
# This is one part of the list. Cut-off read from the data, not from the text of the source: active = 3.2 or more and inactive = the rest. The signal is at background level for most entries.
# B1: FYN_HUMAN_28_YA (peptide)
# chain: SLNQSSGYRAGTDPT
# B2: AFAP1L2_HUMAN_54_YA (peptide)
# chain: SSSSDEEYIAMNKVT
# B3: GELS_HUMAN_651 (peptide)
# chain: ALGGKAAYRTSPRLK
# B4: GCSAM_HUMAN_107 (peptide)
# chain: GNSAEEYYENVPCKA
# B5: FRS2_HUMAN_392 (peptide)
# chain: NLDPMHNYVNTENVT
# B6: FYB_HUMAN_571 (peptide)
# chain: TTAVEIDYDSLKLKK
# B7: GBF1_HUMAN_1316_YA (peptide)
# chain: DVSLDRGYTSDSEVA
# B8: GARE1_HUMAN_105 (peptide)
# chain: DIKEPVQYFNSVEEV
# B9: GDIR2_HUMAN_24 (peptide)
# chain: ELDSKLNYKPPPQKS
# B10: AKA12_HUMAN_374 (peptide)
# chain: EPRLSAEYEKVELPS
# B11: G6B_HUMAN_211 (peptide)
# chain: DQEPSLLYADLDHLA
# B12: GIT2_HUMAN_484 (peptide)
# chain: KQATTNVYQVQTGSE
# B13: AGTR1_HUMAN_319_YA (peptide)
# chain: AFLQLLKYIPPKAKS
# B14: FXN_HUMAN_118_YA (peptide)
# chain: EDLADKPYTFEDADV
# B15: G6PD_HUMAN_428 (peptide)
# chain: DLTYGNRYKNVKLPD
# B16: FRS2_HUMAN_196 (peptide)
# chain: AEEQVHTYVNTTGVQ
# B17: AKAP4_HUMAN_303 (peptide)
# chain: GGQKSFLYSELSNKS
# B18: FR1OP_HUMAN_337 (peptide)
# chain: GTGEDDDYVDDFNST
# Target: SHP2 C-SH2 domain E139D
# Experiment: enrichment score (SH2-bound / input frequency) (ratio); bacterial display of known human phosphotyrosine sites (pTyr-Var adds point mutants) read by sequencing; higher = stronger binding; tyrosines were phosphorylated by kinases first
# Conditions: peptide library: Human pTyr
# 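Note: displayed peptides selected on beads carrying the immobilized SH2 domain, with library peptides lacking any tyrosine serving as negative controls.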
row,Binder,enrichment score
1,B1,inactive: 0.758
2,B2,inactive: 0.64
3,B3,inactive: 1.28
4,B4,inactive: 1.07
5,B5,inactive: 0.847
6,B6,inactive: 0.863
7,B7,inactive: 0.823
8,B8,inactive: 1.16
9,B9,inactive: 1.03
10,B10,inactive: 0.565
11,B11,inactive: 0.8
12,B12,inactive: 0.826
13,B13,active: 3.31
14,B14,inactive: 1.09
15,B15,inactive: 0.544
16,B16,inactive: 1.72
17,B17,inactive: 0.825
18,B18,inactive: 1.06

# Target: SHP2 C-SH2 domain wild-type
# Experiment: as above
# Conditions: peptide library: Human pTyr
row,Binder,enrichment score
1,B1,inactive: 0.547
2,B2,inactive: 0.747
3,B3,inactive: 1.46
4,B4,inactive: 0.865
5,B5,inactive: 0.763
6,B6,inactive: 0.682
7,B7,inactive: 0.558
8,B8,inactive: 0.899
9,B9,inactive: 0.872
10,B10,inactive: 0.582
11,B11,inactive: 0.634
12,B12,inactive: 0.637
13,B13,active: 3.61
14,B14,inactive: 1.09
15,B15,inactive: 0.545
16,B16,inactive: 2.05
17,B17,inactive: 0.633
18,B18,inactive: 1.03

# Target: SHP2 N-SH2 domain L43F
# Experiment: as above
# Conditions: peptide library: Human pTyr
row,Binder,enrichment score
1,B1,inactive: 0.693
2,B2,inactive: 0.767
3,B3,inactive: 1.24
4,B4,inactive: 0.834
5,B5,inactive: 0.79
6,B6,inactive: 0.725
7,B7,inactive: 0.658
8,B8,inactive: 0.858
9,B9,inactive: 0.941
10,B10,inactive: 0.676
11,B11,inactive: 3.03
12,B12,inactive: 0.811
13,B13,active: 3.48
14,B14,inactive: 1.16
15,B15,inactive: 0.699
16,B16,inactive: 1.78
17,B17,inactive: 0.693
18,B18,inactive: 1.09

# Target: SHP2 N-SH2 domain T42A
# Experiment: as above
# Conditions: peptide library: Human pTyr
row,Binder,enrichment score
1,B1,inactive: 0.589
2,B2,inactive: 0.753
3,B3,inactive: 1.53
4,B4,inactive: 1.02
5,B5,inactive: 0.88
6,B6,inactive: 0.848
7,B7,inactive: 0.672
8,B8,inactive: 0.853
9,B9,inactive: 0.896
10,B10,inactive: 0.715
11,B11,inactive: 2.17
12,B12,inactive: 0.699
13,B13,active: 3.86
14,B14,inactive: 1.11
15,B15,inactive: 0.603
16,B16,inactive: 1.73
17,B17,inactive: 0.802
18,B18,inactive: 1.1

# Target: SHP2 N-SH2 domain T52S
# Experiment: as above
# Conditions: peptide library: Human pTyr
row,Binder,enrichment score
1,B1,inactive: 0.615
2,B2,inactive: 0.673
3,B3,inactive: 1.37
4,B4,inactive: 0.946
5,B5,inactive: 0.988
6,B6,inactive: 0.682
7,B7,inactive: 0.848
8,B8,inactive: 1.02
9,B9,inactive: 0.914
10,B10,inactive: 0.757
11,B11,inactive: 2.2
12,B12,inactive: 0.657
13,B13,active: 3.49
14,B14,inactive: 1.31
15,B15,inactive: 0.842
16,B16,inactive: 1.99
17,B17,inactive: 1.01
18,B18,inactive: 1.37

# Target: SHP2 N-SH2 domain wild-type
# Experiment: as above
# Conditions: peptide library: Human pTyr
row,Binder,enrichment score
1,B1,inactive: 0.795
2,B2,inactive: 0.777
3,B3,inactive: 1.3
4,B4,inactive: 0.899
5,B5,inactive: 0.866
6,B6,inactive: 0.829
7,B7,inactive: 0.702
8,B8,inactive: 1.17
9,B9,inactive: 1.17
10,B10,inactive: 0.604
11,B11,inactive: 0.902
12,B12,inactive: 0.633
13,B13,active: 4.53
14,B14,inactive: 1.26
15,B15,inactive: 0.758
16,B16,inactive: 2.35
17,B17,inactive: 0.623
18,B18,inactive: 1.47
